Assay type in all cases: cell-based
The subject of one assay is 92.1 uveal melanoma. Put plainly: Resazurin-based viability assay, 92.1 uveal melanoma cells. To be noted: 96 or 120 hours, Table 9. As for the experimental part: (§1) Following drug treatment for 96 or 120 hours, cell viability and proliferation were determined using a resazurin-based viability assay. Briefly, cells were incubated with a resazurin-based solution and color change was detected by absorbance with a spectrophotometer and used as a readout of cell viability. Data presented as mean of 3 independent replicates and relative to PBS-treated cells (control).
Following drug treatment for 96 or 120 hours, cell viability and proliferation were determined using a resazurin-based viability assay. Briefly, cells were incubated with a resazurin-based solution and color change was detected by absorbance with a spectrophotometer and used as a readout of cell viability. Data presented as mean of 3 independent replicates and relative to PBS-treated cells (control) (FIG. 6).
Following drug treatment for 96 or 120 hours, cell viability and proliferation were determined using a resazurin-based viability assay. Data presented as mean of 3 independent replicates and relative to PBS-treated cells (control) (FIG. 8).
as §1
For orientation: Resazurin is reduced to fluorescent resorufin, in cell work by metabolically active cells.

For a further assay, the system named is MP41. Put plainly: Resazurin-based viability assay, MP41 cells. To be noted: 96 or 120 hours, Table 9. As for the experimental part:
as §1

In another assay the test system is 92.1 cells. Put plainly: Annexin V flow cytometry apoptosis assay, 92.1 cells. To be noted: FIG. 7. As for the experimental part: 92.1 and MIAPACA cells were seeded in 96-well plates (5000 cells per well) and treated with increasing concentrations of Compound (A1), Compound (A2), and a fixed dose of Staurosporine (100 nM, positive control) as indicated. Following drug treatment for 96, cells were subjected to fluorescence-activated flow cytometry using an Annexin V antibody conjugated to a fluorescent dye. Data presented as mean of 3 independent replicates.
92.1 cells were seeded in 96-well plates (5000 cells per well) and treated with increasing concentrations of Compound (A1), 3207-(B1) (Isotype control), G4-(B1), and G1-(B1) as indicated. Following drug treatment for 96, cells were subjected to fluorescence-activated flow cytometry using an Annexin V antibody conjugated to a fluorescent dye. Data presented as mean of 3 independent replicates.

B1: G1-3J-DAR4-(B1): anti-PMEL17 antibody G1 with 3J light chain conjugated to (B1), DAR4 (conjugate)
heavy: QVQLVQSGAEVKKPGSSVKVSCKASGGTFSDYAITWVRQAPGQGLEWMGGIIPIFGTANYAQKFQGRVTITADESTSTAYMELSSLRSEDTAVYYCAREGGLLTDISYSRYWFAYWGQGTLVTVSSASTKGPSVFPLAPSSKSTSGGTAALGCLVKDYFPCPVTVSWNSGALTSGVHTFPAVLQSSGLYSLSSVVTVPSSSLGTQTYICNVNHKPSNTKVDKRV[in this place human IgG1 Fc with S375C (EU numbers)]
light: SYELTQPLSVSVALGQTARITCSGDALRDKFVYWYQQKPGQAPVLVIYDDNNRPSGIPERFSGSNSGNTATLTISRAQAGDEADYYCQSWDHSYSLVVFGGGTKLTVLGQPKAAPSVTLFPPSSEELQANKATLVCLISDFYPGAVTVAWKADSSPVKAGVETTTPSKQSNNKYAASSYLSLTPEQWKSHRSYSCQVTHEGSTVEKTVAPTECS
Take B1: the results for the GI50 with 92.1 uveal melanoma and in the assay on MP41 were 0.85 nM and 0.582 nM, respectively.

B2: G1-3R-DAR4-(B1): anti-PMEL17 antibody G1 with 3R light chain conjugated to (B1), DAR4 (conjugate)
heavy: QVQLVQSGAEVKKPGSSVKVSCKASGGTFSDYAITWVRQAPGQGLEWMGGIIPIFGTANYAQKFQGRVTITADESTSTAYMELSSLRSEDTAVYYCAREGGLLTDISYSRYWFAYWGQGTLVTVSSASTKGPSVFPLAPSSKSTSGGTAALGCLVKDYFPCPVTVSWNSGALTSGVHTFPAVLQSSGLYSLSSVVTVPSSSLGTQTYICNVNHKPSNTKVDKRV[in this place human IgG1 Fc with S375C (EU numbers)]
light: SYELTQPPSVSVSPGQTASITCSGDALRDKFVYWYQQKPGQSPVLVIYDDNNRPSGIPERFSGSNSGNTATLTISGTQAMDEADYYCQSWDHSYSLVVFGGGTKLTVLGQPKAAPSVTLFPPSSEELQANKATLVCLISDFYPGAVTVAWKADSSPVKAGVETTTPSKQSNNKYAASSYLSLTPEQWKSHRSYSCQVTHEGSTVEKTVAPTECS
For B2, the GI50 (in general, the concentration that inhibits growth by half) came out at 0.811 nM in the assay on 92.1 uveal melanoma and 0.654 nM in the assay with MP41.

B3: G4-(B1) (conjugate)
heavy: QVQLVQSGAEVKKPGSSVKVSCKASGGTFSTYAISWVRQAPGQGLEWMGRIIPILGIANYAQKFQGRVTITADESTSTAYMELSSLRSEDTAVYYCAREVRMIFDYWGQGTLVTVSSASTKGPSVFPLAPSSKSTSGGTAALGCLVKDYFPCPVTVSWNSGALTSGVHTFPAVLQSSGLYSLSSVVTVPSSSLGTQTYICNVNHKPSNTKVDKRV[in this place human IgG1 Fc with S375C (EU numbers)]
light: DIQMTQSPSSLSASVGDRVTITCRASQSISSYLAWYQQKPGKAPKLLIYAASSLQSGVPSRFSGSGSGTDFTLTISSLQPEDFATYYCQQSYDYYTFGQGTKVEIKRTVAAPSVFIFPPSDEQLKSGTASVVCLLNNFYPREAKVQWKVDNALQSGNSQESVTEQDSKDSTYSLSSTLTLSKADYEKHKVYACEVTHQGLSSPVTKSFNRGEC
For B3, the “apoptosis (Annexin V)” value in the assay with 92.1 cells was “induced apoptosis in 92.1 cells in a dose-dependent manner”.
